Assay results reported in publication PMC4344508.
Results are given in words; binding and its absence hold for the method and conditions named. For some of these results: Binding seen in cells or lysates may run through a third protein. Some entries that bind do so weakly or less than the wild type. For some of these results: Where a sequence is shown, tags or fusion partners need not be part of it. Values belong to the binder of their own block, whether it stands above or below them.

By UniProt entry, the sequences of proteins in these tests, tags left out.
UniProt Q13838: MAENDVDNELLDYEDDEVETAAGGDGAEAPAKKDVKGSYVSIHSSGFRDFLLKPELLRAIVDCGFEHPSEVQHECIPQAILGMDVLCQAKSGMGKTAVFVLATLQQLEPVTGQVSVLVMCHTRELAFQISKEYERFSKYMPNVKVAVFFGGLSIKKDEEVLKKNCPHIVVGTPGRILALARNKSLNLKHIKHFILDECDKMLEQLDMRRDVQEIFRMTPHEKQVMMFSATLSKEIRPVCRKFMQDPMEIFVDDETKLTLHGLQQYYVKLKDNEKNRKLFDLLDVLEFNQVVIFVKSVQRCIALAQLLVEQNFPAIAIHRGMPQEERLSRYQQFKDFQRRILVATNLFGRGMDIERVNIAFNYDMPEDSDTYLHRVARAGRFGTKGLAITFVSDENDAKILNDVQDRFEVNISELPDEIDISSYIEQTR

Columns and labels:
GST-Uap56 [1] = biological target: GST-Uap56 (UniProt Q13838); assay: pull-down; GST-Nxf1:p15 or GST-Uap56 as bait, 35S-labelled Luzp4 truncations as prey, phosphoimage; RB100 buffer with 10 μg/ml RNase A; only the target purified
GST-Nxf1:p15 [2] = biological target: T1, GST-Nxf1:p15 (UniProt Q9UBU9); assay: pull-down; Nxf1 remodelling assay: Luzp4 pre-incubated with a 32P-labelled RNA oligonucleotide, incubated with immobilized GST or GST-Nxf1:p15, complexes purified by GST pull-down and eluted; both purified
T1 sequence 1: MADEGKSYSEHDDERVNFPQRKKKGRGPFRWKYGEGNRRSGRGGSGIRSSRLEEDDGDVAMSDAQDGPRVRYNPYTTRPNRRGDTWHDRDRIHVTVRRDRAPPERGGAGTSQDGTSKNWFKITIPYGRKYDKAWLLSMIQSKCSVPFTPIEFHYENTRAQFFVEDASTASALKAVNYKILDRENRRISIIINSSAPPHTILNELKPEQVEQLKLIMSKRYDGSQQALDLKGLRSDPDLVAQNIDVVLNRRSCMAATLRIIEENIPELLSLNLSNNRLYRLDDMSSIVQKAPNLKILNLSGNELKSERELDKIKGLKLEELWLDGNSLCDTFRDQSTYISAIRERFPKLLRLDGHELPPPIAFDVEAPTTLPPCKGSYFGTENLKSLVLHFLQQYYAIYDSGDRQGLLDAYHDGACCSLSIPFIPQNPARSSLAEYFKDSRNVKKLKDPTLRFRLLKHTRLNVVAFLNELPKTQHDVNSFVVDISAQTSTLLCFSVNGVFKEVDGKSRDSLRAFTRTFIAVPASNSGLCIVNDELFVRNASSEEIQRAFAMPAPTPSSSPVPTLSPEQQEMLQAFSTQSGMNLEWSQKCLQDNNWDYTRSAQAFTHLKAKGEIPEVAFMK
T1 sequence 2: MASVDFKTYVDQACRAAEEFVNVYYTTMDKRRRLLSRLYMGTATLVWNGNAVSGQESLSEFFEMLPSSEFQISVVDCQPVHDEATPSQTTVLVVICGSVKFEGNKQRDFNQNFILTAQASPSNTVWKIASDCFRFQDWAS

GST-Nxf1:p15 [3] = biological target: T1, GST-Nxf1:p15; assay: pull-down; GST fusions as bait, purified Luzp4 produced in E. coli as prey; RB100 buffer (25 mM HEPES pH 7.5, 100 mM KOAc, 10 mM MgCl2, 1 mM dithiothreitol, 0.05% Triton X-100, 10% glycerol, 10 μg/ml RNase A); both purified
GST-Uap56 [4] = biological target: GST-Uap56 (UniProt Q13838); assay: as above
FLAG-Nxf1-myc = biological target: T2, FLAG-Nxf1-myc (UniProt Q9UBU9); assay: co-IP; FLAG-tagged baits expressed in human cells; IP lysis buffer (50 mM HEPES pH 7.5, 100 mM NaCl, 1 mM EDTA, 1 mM dithiothreitol, 0.5% Triton X-100, 10% glycerol), with or without 10 μg/ml RNase A; western blot
T2 sequence: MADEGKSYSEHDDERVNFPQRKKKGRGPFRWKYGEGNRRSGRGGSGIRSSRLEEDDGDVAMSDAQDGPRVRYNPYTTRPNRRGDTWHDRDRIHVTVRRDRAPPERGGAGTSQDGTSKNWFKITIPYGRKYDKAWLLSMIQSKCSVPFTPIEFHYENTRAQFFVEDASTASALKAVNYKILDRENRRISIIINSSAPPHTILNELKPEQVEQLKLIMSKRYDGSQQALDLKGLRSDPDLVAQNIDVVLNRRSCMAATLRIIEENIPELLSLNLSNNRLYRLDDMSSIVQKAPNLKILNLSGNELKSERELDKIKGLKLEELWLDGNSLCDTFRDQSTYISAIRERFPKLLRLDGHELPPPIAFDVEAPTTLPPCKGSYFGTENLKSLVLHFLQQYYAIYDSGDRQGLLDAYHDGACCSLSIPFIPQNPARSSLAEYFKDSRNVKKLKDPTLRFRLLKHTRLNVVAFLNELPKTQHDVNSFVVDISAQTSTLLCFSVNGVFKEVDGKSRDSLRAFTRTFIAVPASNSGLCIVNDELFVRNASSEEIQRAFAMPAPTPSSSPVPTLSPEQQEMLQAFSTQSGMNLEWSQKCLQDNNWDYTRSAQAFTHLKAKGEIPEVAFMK

FLAG-Uap56-myc = FLAG-Uap56-myc (UniProt Q13838); assay: as above
GB1-Nxf1 aa 1–198 = biological target: T3, GB1-Nxf1 aa 1–198 (UniProt Q9UBU9); assay: pull-down; IgG-Sepharose pull-down, purified GB1-tagged Nxf1 proteins as bait, 35S-Luzp4 as prey, phosphoimage; only the target purified
T3 sequence: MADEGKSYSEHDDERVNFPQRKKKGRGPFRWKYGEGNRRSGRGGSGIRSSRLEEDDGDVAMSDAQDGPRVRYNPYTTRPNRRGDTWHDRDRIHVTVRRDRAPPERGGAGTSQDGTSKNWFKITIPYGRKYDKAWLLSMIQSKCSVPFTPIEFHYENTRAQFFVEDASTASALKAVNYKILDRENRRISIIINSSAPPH

Nxf2 (human) = biological target: T4, Nxf2 (human) (UniProt Q9GZY0); assay: co-IP; Supplementary Figure S2A; constructs and cells not told in the text shown
T4 sequence: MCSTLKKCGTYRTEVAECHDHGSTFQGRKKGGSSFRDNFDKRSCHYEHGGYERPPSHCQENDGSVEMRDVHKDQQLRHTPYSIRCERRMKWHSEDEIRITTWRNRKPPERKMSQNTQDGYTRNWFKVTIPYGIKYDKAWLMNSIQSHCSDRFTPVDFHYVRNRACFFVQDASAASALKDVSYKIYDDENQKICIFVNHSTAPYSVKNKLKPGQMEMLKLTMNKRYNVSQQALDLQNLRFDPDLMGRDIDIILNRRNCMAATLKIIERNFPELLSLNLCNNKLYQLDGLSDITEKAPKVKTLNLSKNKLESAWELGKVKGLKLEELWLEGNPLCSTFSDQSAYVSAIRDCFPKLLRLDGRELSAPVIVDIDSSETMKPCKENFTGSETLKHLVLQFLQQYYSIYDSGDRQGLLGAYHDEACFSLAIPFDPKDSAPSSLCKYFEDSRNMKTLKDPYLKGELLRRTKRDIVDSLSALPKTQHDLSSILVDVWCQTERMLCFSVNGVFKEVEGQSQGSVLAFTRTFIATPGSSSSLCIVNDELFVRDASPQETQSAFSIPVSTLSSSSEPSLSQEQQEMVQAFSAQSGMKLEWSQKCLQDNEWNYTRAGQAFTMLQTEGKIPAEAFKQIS

GST-Nxf1:p15 [5] = biological target: T1, GST-Nxf1:p15; assay: pull-down; GST-Nxf1:p15 or GST-Uap56 as bait, 35S-labelled Luzp4 truncations as prey, phosphoimage; RB100 buffer with 10 μg/ml RNase A; only the target purified

binding (GST-Uap56 [1]): no binding
B1: Luzp4 aa 119–313 (35S-labelled truncation) (domain or fragment, UniProt Q9P127-1 119-313)
chain: DNYEAQAEKNQGQSEGNQHQSEGNPDKSEESQGQPEENHHSERSRNHLERSLSQSDRSQGQLKRHHPQYERSHGQYKRSHGQSERSHGHSERSHGHSERSHGHSERSHGHSKRSRSQGDLVDTQSDLIATQRDLIATQKDLIATQRDLIATQRDLIVTQRDLVATERDLINQSGRSHGQSERHQRYSTGKNTITT
modifications: 35S label

binding (GST-Uap56 [1]): binds
B2: Luzp4 aa 1–119 (35S-labelled truncation) (domain or fragment, UniProt Q9P127-1 1-119)
chain: MASFRKLTLSEKVPPNHPSRKKVNFLDMSLDDIIIYKELEGTNAEEEKNKRQNHSKKESPSRQQSKAHRHRHRRGYSRCRSNSEEGNHDKKPSQKPSGFKSGQHPLNGQPLIEQEKCSD
modifications: 35S label

binding (GST-Nxf1:p15 [2]): binds
binding (GST-Nxf1:p15 [3]): binds
binding (GST-Uap56 [4]): binds
B3: Luzp4–6His (protein, UniProt Q9P127-1 1-313)
chain: MASFRKLTLSEKVPPNHPSRKKVNFLDMSLDDIIIYKELEGTNAEEEKNKRQNHSKKESPSRQQSKAHRHRHRRGYSRCRSNSEEGNHDKKPSQKPSGFKSGQHPLNGQPLIEQEKCSDNYEAQAEKNQGQSEGNQHQSEGNPDKSEESQGQPEENHHSERSRNHLERSLSQSDRSQGQLKRHHPQYERSHGQYKRSHGQSERSHGHSERSHGHSERSHGHSERSHGHSKRSRSQGDLVDTQSDLIATQRDLIATQKDLIATQRDLIATQRDLIVTQRDLVATERDLINQSGRSHGQSERHQRYSTGKNTITT

binding (FLAG-Nxf1-myc): binds
binding (FLAG-Uap56-myc): binds
B4: Luzp4-myc (protein, UniProt Q9P127-1 1-313)
chain: MASFRKLTLSEKVPPNHPSRKKVNFLDMSLDDIIIYKELEGTNAEEEKNKRQNHSKKESPSRQQSKAHRHRHRRGYSRCRSNSEEGNHDKKPSQKPSGFKSGQHPLNGQPLIEQEKCSDNYEAQAEKNQGQSEGNQHQSEGNPDKSEESQGQPEENHHSERSRNHLERSLSQSDRSQGQLKRHHPQYERSHGQYKRSHGQSERSHGHSERSHGHSERSHGHSERSHGHSKRSRSQGDLVDTQSDLIATQRDLIATQKDLIATQRDLIATQRDLIVTQRDLVATERDLINQSGRSHGQSERHQRYSTGKNTITT

binding (GB1-Nxf1 aa 1–198): binds
B5: 35S-Luzp4 (protein, UniProt Q9P127-1 1-313)
chain: MASFRKLTLSEKVPPNHPSRKKVNFLDMSLDDIIIYKELEGTNAEEEKNKRQNHSKKESPSRQQSKAHRHRHRRGYSRCRSNSEEGNHDKKPSQKPSGFKSGQHPLNGQPLIEQEKCSDNYEAQAEKNQGQSEGNQHQSEGNPDKSEESQGQPEENHHSERSRNHLERSLSQSDRSQGQLKRHHPQYERSHGQYKRSHGQSERSHGHSERSHGHSERSHGHSERSHGHSKRSRSQGDLVDTQSDLIATQRDLIATQKDLIATQRDLIATQRDLIVTQRDLVATERDLINQSGRSHGQSERHQRYSTGKNTITT
modifications: 35S label

binding (Nxf2 (human)): binds
B6: Luzp4 (construct of the co-IP with Nxf2) (protein, UniProt Q9P127-1 1-313)
chain: MASFRKLTLSEKVPPNHPSRKKVNFLDMSLDDIIIYKELEGTNAEEEKNKRQNHSKKESPSRQQSKAHRHRHRRGYSRCRSNSEEGNHDKKPSQKPSGFKSGQHPLNGQPLIEQEKCSDNYEAQAEKNQGQSEGNQHQSEGNPDKSEESQGQPEENHHSERSRNHLERSLSQSDRSQGQLKRHHPQYERSHGQYKRSHGQSERSHGHSERSHGHSERSHGHSERSHGHSKRSRSQGDLVDTQSDLIATQRDLIATQKDLIATQRDLIATQRDLIVTQRDLVATERDLINQSGRSHGQSERHQRYSTGKNTITT

binding (GST-Nxf1:p15 [5]): binds weakly
B7: Luzp4 aa 1–240 (35S-labelled truncation) (domain or fragment, UniProt Q9P127-1 1-240)
chain: MASFRKLTLSEKVPPNHPSRKKVNFLDMSLDDIIIYKELEGTNAEEEKNKRQNHSKKESPSRQQSKAHRHRHRRGYSRCRSNSEEGNHDKKPSQKPSGFKSGQHPLNGQPLIEQEKCSDNYEAQAEKNQGQSEGNQHQSEGNPDKSEESQGQPEENHHSERSRNHLERSLSQSDRSQGQLKRHHPQYERSHGQYKRSHGQSERSHGHSERSHGHSERSHGHSERSHGHSKRSRSQGDLVD
modifications: 35S label
